The full ranking holds about 110,000 compounds; the median of “z-score” is about -0.1, and the highest 2% start at about 2. The list shows a part of the results. Calls of active or inactive are those of the source.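 Rule for the calls: active = z-score in the third read window above 3 or below -3; inactive = the rest.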
Biological target: Metabotropic glutamate receptor 8 (Rattus norvegicus) (UniProt P70579)
Assay: mGluR8 Gi/Go-coupled signaling modulation – cell-based, rat, thallium flux, HTS, primary screen (AID 488969)
Settings: HEK293 rat mGluR8, GIRK (G protein-gated inwardly rectifying potassium channel) thallium flux, FluoZin2; at 10 µM; stronger effect = higher value; submaximal glutamate (EC20) added with thallium

Sequence of UniProt P70579 (P70579 whole entry, looked up): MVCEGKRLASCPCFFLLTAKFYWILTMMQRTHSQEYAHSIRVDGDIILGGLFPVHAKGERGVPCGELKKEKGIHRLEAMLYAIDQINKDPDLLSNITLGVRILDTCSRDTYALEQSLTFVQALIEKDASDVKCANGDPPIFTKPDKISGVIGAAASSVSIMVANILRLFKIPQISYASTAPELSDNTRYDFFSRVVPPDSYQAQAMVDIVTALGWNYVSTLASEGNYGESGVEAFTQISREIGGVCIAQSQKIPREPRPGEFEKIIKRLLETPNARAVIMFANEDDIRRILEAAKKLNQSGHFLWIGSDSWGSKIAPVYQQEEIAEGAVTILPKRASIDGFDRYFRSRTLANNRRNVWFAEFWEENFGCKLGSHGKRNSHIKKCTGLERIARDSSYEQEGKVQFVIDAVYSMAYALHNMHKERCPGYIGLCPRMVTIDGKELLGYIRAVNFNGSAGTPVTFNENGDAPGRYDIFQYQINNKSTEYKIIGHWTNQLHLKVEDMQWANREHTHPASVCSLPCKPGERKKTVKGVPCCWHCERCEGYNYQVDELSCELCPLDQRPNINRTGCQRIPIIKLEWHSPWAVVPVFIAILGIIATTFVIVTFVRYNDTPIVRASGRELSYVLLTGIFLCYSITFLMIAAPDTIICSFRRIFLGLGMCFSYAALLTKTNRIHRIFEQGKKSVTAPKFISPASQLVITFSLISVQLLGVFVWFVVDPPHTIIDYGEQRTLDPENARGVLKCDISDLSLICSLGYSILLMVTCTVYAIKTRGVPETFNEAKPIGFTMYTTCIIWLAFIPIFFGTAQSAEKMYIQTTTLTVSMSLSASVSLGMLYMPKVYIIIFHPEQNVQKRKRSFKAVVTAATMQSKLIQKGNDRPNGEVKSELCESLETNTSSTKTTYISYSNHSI

Structure (SMILES)	z-score
Cc1ccc(C)c(NC(=S)N2CCC(N(C)CC3CCCO3)CC2)c1 (stereo not given)	0.13
CCOC(=O)CC(=O)CSc1nnc(Cn2c(=O)sc3ccccc32)n1C	-0.362
O=C(Nc1nnc(-c2ccc(Cl)cc2)o1)NC1CCCCC1	-0.0226
CCc1ccc(OCC(=O)NC(NC(=S)Nc2ccc(Cl)cc2)C(Cl)(Cl)Cl)cc1 (stereo not given)	-0.109
Cc1cc(C)c2c(-n3cccc3)c(C(=O)NNS(=O)(=O)c3ccc(Cl)cc3)sc2n1	0.188
CCOC(=O)C1CCCN(C(=O)c2ccco2)C1 (stereo not given)	0.661
COc1cccc2c(SCC(=O)N/N=C/c3ccccc3)cc(C)nc12	0.139
C=CCc1ccc(OCCOCCOc2ccc(C)cc2[N+](=O)[O-])c(OC)c1	-0.342
O=C(NCC(=O)N1CCN(c2ncccn2)CC1)c1cccs1	0.235
O=C(N/N=C/c1ccc(F)cc1)c1sccc1OCc1ccc(F)cc1	-0.218
CC(C)c1ccc(OCC(=O)Nc2cccc3c2CCCC3)cc1	-0.403
CCOC(=O)C1C2C=CC3(CN(c4ccccc4CC)C(=O)C13)O2 (stereo not given)	0.141
CCSc1nnc(NC(=O)CSc2nc(C)cc(C)n2)s1	-0.0284
Cc1cc(C(=O)O)ccc1N/C=C1\CCCC(C)C1=O (stereo not given)	0.167
CCCCc1[nH]c(=O)c(C#N)c2c1CSC(C)(C)C2	-0.556
CC1=CC2=NC(=O)/C(=C\c3cc(C)n(-c4cccc(Cl)c4)c3C)C(=N)N2O1	-0.016
CC(=O)n1c(Cl)c(NC(=O)CCl)c2ccccc21	0.0906
CCCOc1ccc(N2C(=O)CC(N3CCN(c4ccccc4OC)CC3)C2=O)cc1 (stereo not given)	-0.446
Cc1cccc2c1N(CC(=O)OC(C)C)C(=O)C2=O	-0.0885
COc1ccc(-c2nc(C#N)c(N3CCC(C(N)=O)CC3)o2)cc1OC	0.0333
Cc1ccccc1N=C/C=C1\N(C)c2ccccc2C1(C)C	0.23
COc1ccc(/C=N/N=C2\CC3CCC2(C)C3(C)C)cc1O (stereo not given)	0.286
CCC12CC3CC(C1)CC(C(=O)Nc1nn[nH]n1)(C3)C2	-0.108
CCOC(=O)c1cnn(-c2ncnc3sc(CC)cc23)c1N	0.192

Structure (SMILES)	z-score
C=CCn1c(Cc2nc3ccccc3[nH]2)n[nH]c1=S	-0.147
Cc1ccc2cc(C#N)c(NCCCNC(=O)C3CCCO3)nc2c1 (stereo not given)	0.471
Cc1ccc(-n2ccnc2SCC(=O)O)c(C)c1	-0.959
CC1CCN(C(=O)COC(=O)c2ccc(Br)o2)CC1	-0.366
CCCn1c(C2CC(=O)N(c3ccc(C)cc3)C2)nc2ccccc21 (stereo not given)	-0.224
COCCn1nnnc1C(C(C)C)N1CCN(C(=O)c2ccco2)CC1 (stereo not given)	-0.255
O=[N+]([O-])c1cccc(S(=O)(=O)N2CCC(c3nc(-c4ccncc4)no3)CC2)c1	-0.207
Cc1nc(-c2ccccc2)sc1-c1nc(-c2cccs2)ncc1S(=O)(=O)c1ccccc1	-0.0428
COC(=O)C1=C(C)N(C)C(=O)NC1c1ccc(O)c(OC)c1 (stereo not given)	-0.0527
Cc1cccc(OCCNC(=O)CSc2ccc(C(F)(F)F)cc2[N+](=O)[O-])c1	-0.0684
COc1ccc(C(=O)NCCc2c[nH]c3ccccc23)cc1S(=O)(=O)N1CCOCC1	-0.0814
C/C(=N\OCC(=O)Nc1ccc(F)c(F)c1F)c1cc2ccccc2o1	-1.92
Cc1cc(/C=C2/NC(=O)N(c3ccccc3)C2=O)c(C)n1-c1cccnc1	-0.404
COc1ccc(NC(=O)N2CCCCC2c2cccnc2)cc1 (stereo not given)	-0.168
COC(=O)c1ccc(C2Nc3ccc(/C(C)=N/NC(=O)C(OC)c4ccccc4)cc3C3C=CCC32)cc1 (stereo not given)	-0.34
CC(=O)N(c1ccc(N(C(C)=O)S(=O)(=O)c2cccs2)cc1)S(=O)(=O)c1cccs1	0.19
COC(=O)C(C)N(C#N)c1nc(C)nc(C)n1 (stereo not given)	-0.57
CCOC(=O)N1CCN(C(=O)CSc2ncccn2)CC1	0.107
CC(C)CC(c1nnnn1CCc1ccccc1)N1CCC(C(N)=O)CC1 (stereo not given)	0.238
CCCCOC(=O)c1ccc(NC(=O)/C=C/c2cccs2)cc1	-0.063
Cc1cc(CNC(=O)Cc2c(F)cccc2Cl)nn1C	0.266
Cc1ccc(CCNc2ccc3ccccc3c2)cn1	0.548
COC(=O)[C@H](Cc1ccccc1)NC(=O)NCc1ccc(S(N)(=O)=O)cc1	0.212
CCOC(=O)N1CCN(S(=O)(=O)c2ccc(OC)c3ccccc23)CC1	-0.219

Structure (SMILES)	z-score
COc1ccc(C(=O)Nc2ccc(Cl)cc2C(=O)NCCO)cc1	-0.145
CCOc1ccc(S(=O)(=O)NNC(=O)c2cc3ccccc3o2)cc1	-0.34
c1ccc(-c2nn3c(-c4ccco4)nnc3s2)nc1	0.869
CCCc1cc(C(=O)OC)c(NC(=O)OCC)s1	0.148
Cc1cc(C(=O)N/N=C2\CCCC(C)C2)n[nH]1 (stereo not given)	-0.208
Cc1cc(C)nc(SCC(=O)N2CCC(C(N)=O)CC2)n1	0.0531
O=C(c1cc2nc(-c3ccco3)cc(C(F)(F)F)n2n1)N1CCN(c2ccc(F)cc2)CC1	-0.597
CC1(C)CC(=O)C2=C(C1)NC(SCC(=O)Nc1ccccc1)=C(C#N)C2c1ccco1 (stereo not given)	active: -6.26
NS(=O)(=O)c1ccc(CCNC(=O)CN2CCN(c3ccccc3F)CC2)cc1	-0.203
COc1ccc(NC(=O)c2sccc2SCC#N)cc1	-0.312
COc1ccc(NC(=O)c2cccs2)cc1O	0.366
O=C1CCc2cc(S(=O)(=O)NC(Cc3ccccc3)C(=O)NCC3CCCO3)ccc2N1 (stereo not given)	-0.144
Cc1cc(-c2ccccc2)nc(N2CCC(C(=O)NC(C)C)CC2)n1	0.839
O=C(NC1CCCCC1)N1CCC(n2c(=O)[nH]c3ccccc32)CC1	-0.147
Cc1ccc(CN2C(=O)CCSc3ccc(Cl)cc32)cc1	-0.054
CCC(C(=O)OCC(=O)Nc1c(C)n(C)n(-c2ccccc2)c1=O)c1ccccc1 (stereo not given)	0.215
CCN1C(=O)C2(C(C#N)=C(N)Oc3c2c(C)nn3-c2ccccc2)c2ccccc21 (stereo not given)	0.549
Nc1c(Nc2ccccc2)c2ccccc2oc1=O	-0.198
COc1cccc(C(=O)/C=C/Nc2ccc(S(=O)(=O)Nc3cnc4ccccc4n3)cc2)c1	1.16
O=C(Nc1nc2c(s1)CN(Cc1ccccc1)CC2)c1cccc(S(=O)(=O)N2CCc3ccccc32)c1	-0.247
Nc1nn(S(=O)(=O)c2ccccc2)cc1-c1ccc([N+](=O)[O-])cc1	-0.403
CC(C)c1ccc2oc(-c3ccc(N)cc3)nc2c1	1.97
